Results published in PubChem BioAssay AID504832 (National Center for Advancing Translational Sciences (NCATS), 2011).
Out of some 310,000 compounds screened, about 18,000 (5.8%) were called active. The inconclusive results got no clear call from the source; some entries with a clear call stand among them for comparison. The call rests on the fitted dose curve; in most records, active means well fitted inhibition curve with a large enough effect; inconclusive means small, poorly fitted or top-dose-only effect, or another doubt; inactive means no such curve, though single readings can be large or run the other way. Potencies of inconclusive entries are left out as doubtful fits.

Assay: Primary qHTS for delayed death inhibitors of the malarial parasite plastid, 48 hour incubation
Settings: P. falciparum luciferase growth in erythrocytes; series mostly up to 28.7 µM
Outline: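 Growth was read as firefly luciferase luminescence after a 48 h, 37 C, 5% CO2 exposure of compounds to reporter-bearing P. falciparum cultures (0.1% parasitemia, 2% hematocrit final) in Albumax-supplemented RPMI 1640.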
Potency means the concentration at half of the fitted maximal effect; tags describe the fitted curve by direction and shape.

| Structure (SMILES) | Potency |
| --- | --- |
| COC(=O)c1ccccc1S(=O)(=O)N(CCCO)Cc1cc2c(C)ccc(C)c2[nH]c1=O | inconclusive [inhibitor, partial curve] |
| O=C(Nc1ccccc1N1CCCC1)C1CCN(S(=O)(=O)c2ccccc2C(F)(F)F)CC1 | inconclusive [inhibitor, single point] |
| CCC(C)(C)C1CCc2[nH]nc(C(=O)NCCNC(=O)OC(C)(C)C)c2C1 (configuration not stated) | inconclusive [inhibitor, single point] |
| COc1ccc(Cl)cc1NC(=O)Cn1cccc1 | inconclusive [inhibitor, partial curve, poor fit] |
| O=C1C=C(c2cc(C(F)(F)F)cc(C(F)(F)F)c2)C[C@@H](c2ccc(Cl)cc2)C1 | inconclusive [inhibitor, single point] |
| CCSc1nnc(NC(=O)CSc2nc3c(c(=O)n2-c2ccccc2OC)SCC3)s1 | inconclusive [inhibitor, single point] |
| Cc1cc(C)c2sc(NNC(=O)c3ccc(S(=O)(=O)N4CCc5ccccc5C4)cc3)nc2c1 | inconclusive [inhibitor, partial curve] |
| Cc1cc(C)cc(N(CC(=O)NC2CCCC2)C(=O)CCC(=O)Nc2nc(C)cs2)c1 | inconclusive [inhibitor, single point] |
| Cc1ccc(C(=O)N2CCN(c3cccc(C)c3C)CC2)o1 | inconclusive [inhibitor, single point] |
| CCOC(=O)C1=C(C)Nc2ccccc2N=C1NC(=O)/C=C/c1ccc(OC)cc1OC | inconclusive [inhibitor, partial curve] |
| CCC1CCC(C(=O)NC(CCSC)C(=O)NCCc2ccc(S(N)(=O)=O)cc2)CC1 (configuration not stated) | inactive |
| O=C(NCC(=O)N1CCN(c2ccccc2O)CC1)c1ccc2ccccc2c1 | inconclusive [inhibitor, partial curve] |
| COC(=O)C1=C(C)N(c2ccccc2)C(=S)NC1c1ccccc1C(F)(F)F (configuration not stated) | active: 10.4 µM |
| CC(C)N1CCc2c(sc(NC(=O)c3cc(-c4cccs4)nc4ccccc34)c2C(N)=O)C1 | inconclusive [inhibitor, partial curve] |
| CC1CC(NC2=NCCS2)CC(C)(C)C1 (configuration not stated) | inconclusive [inhibitor, single point] |
| COc1ccc(C2=NS(=O)(=O)N(C)C(C(=O)NCc3ccc4c(c3)OCO4)=C2)cc1 | inconclusive [inhibitor, partial curve, poor fit] |
| COC(=O)c1cccnc1-n1c(=O)c2cccnc2n(Cc2ccc([N+](=O)[O-])cc2)c1=O | active: 10.4 µM |
| CCOc1ccc(-c2[nH]ncc2Oc2cccc(OC)c2)c(O)c1 | inconclusive [inhibitor, partial curve, poor fit] |
| COc1ccc(S(=O)(=O)Nc2ccccc2)cc1OC | inconclusive [inhibitor, full curve, poor fit] |
| COc1ccc(C(=O)NNC(=O)Cc2ccc(Cl)cc2)cc1 | inactive |
| CCOc1ccccc1OCCOCCOc1c(Cl)cccc1Cl | inconclusive [inhibitor, partial curve, poor fit] |
| Cc1cccc(OCC(=O)Nc2ccc3c(c2)nc(CCN2CCCCC2)n3C)c1 | inconclusive [inhibitor, single point] |
| CC(=O)c1ccccc1NC(=O)COC(=O)/C(=C/c1ccccc1)n1nnnc1C | active: 5.86 µM |

| Structure (SMILES) | Potency |
| --- | --- |
| C[n+]1cccc(/C=N/Nc2nc(Cl)c(C#N)c(Cl)c2Cl)c1 | inconclusive [inhibitor, partial curve] |
| COc1ccc(/C=N\NC(=O)c2cc(O)c(O)c(O)c2)cc1CN1CCN(c2ccc(F)cc2)CC1 | active: 4.65 µM |
| Cc1ccc(NC(=S)N2CCN(c3ncccn3)CC2)c(C)c1 | inactive |
| CC1(c2ccccc2)CC(c2ccccc2)=Nc2ccccc2N1 (configuration not stated) | inconclusive [inhibitor, single point] |
| CCOC(=O)CC(=O)CSc1nc2ccccc2c(=O)n1-c1ccc(C(=O)N2CCOCC2)cc1 | active: 1.65 µM |
| CCCc1cc(C(=O)Nc2sc(C)c(C)c2C(=O)OCC)no1 | inactive |
| CCCn1c(=O)c2sccc2n2c(CCCC(=O)NCc3ccco3)nnc12 | inconclusive [inhibitor, partial curve, poor fit] |
| CC(C)c1ccc(OCC(O)CNC(C)c2ccccc2)cc1 (configuration not stated) | active: 4.65 µM |
| COc1ccc(-c2nc3ncccn3c2Nc2ccc3c(c2)OCCO3)cc1 | inconclusive [inhibitor, partial curve] |
| Cc1cc(NCCNC2=CC(=O)CCC2)nc2ccccc12 | inconclusive [inhibitor, single point] |
| CCOC(=O)N/N=C\c1ccc(OC/C=C/c2ccccc2)cc1 | inconclusive [inhibitor, single point] |
| Cc1ccc(C(=O)NNc2cc(N3CCCC3)nc(N3CCCC3)n2)cc1 | active: 4.65 µM |
| CCCCN(CCCC)C(=O)CN(C)S(=O)(=O)c1ccc2c(c1)n(C)c(=O)c(=O)n2C | inconclusive [inhibitor, partial curve] |
| C1CCN2C[C@@H]3C[C@@H](CN4CCCC[C@H]34)[C@H]2C1 | inconclusive [inhibitor, single point] |
| Cc1onc(-c2c(Cl)cccc2Cl)c1C(=O)c1c[nH]c(C(=O)NCC2CCCO2)c1 (configuration not stated) | active: 10.4 µM |
| O=C(NCc1ccncc1)c1cccc(F)c1 | inactive |
| O=C(CSc1cn(Cc2ccccc2)c2ccccc12)NCc1ccc(F)cc1 | inconclusive [inhibitor, single point] |
| Cc1cccn2c(=O)c3cc(S(=O)(=O)c4ccccc4)c(=N)n(Cc4cccnc4)c3nc12 | inconclusive [inhibitor, partial curve, poor fit] |
| CCOc1ccc(N(CC(=O)NC2CC3CCC2C3)S(=O)(=O)c2ccccc2)cc1 (configuration not stated) | inconclusive [inhibitor, single point] |
| O=C(NCc1cccnc1)C1CCN(S(=O)(=O)N2CCOCC2)CC1 | inconclusive [inhibitor, full curve, poor fit] |
| CCc1nc(Nc2ccccc2)c2oc3ccccc3c2n1 | inactive |
| CCC(C)NC(=O)c1ccc2nc(Cc3ccc(OC)cc3)oc2c1 (configuration not stated) | inconclusive [inhibitor, single point] |
| Cc1ccc(-n2c(C)nnc2SCC(=O)NNC(=O)c2ccco2)cc1 | inconclusive [inhibitor, partial curve, poor fit] |

| Structure (SMILES) | Potency |
| --- | --- |
| Cc1cccc(NC(=O)CCCN2C(=O)C(c3ccccc3)Oc3cccnc32)c1C (configuration not stated) | inconclusive [inhibitor, single point] |
| CC(C)NC(=O)C(=O)NCc1ccccn1 | inactive |
| CCC(NC(=S)NCc1ccc(F)cc1)c1ccccc1 (configuration not stated) | active: 6.57 µM |
| O=C(COC(=O)/C=C/c1ccccc1Cl)NC(=O)NC1CCCC1 | inactive |
| Cc1cccc(NC2=NC(=S)N(CC#N)C23CCCCC3)c1 | inconclusive [inhibitor, single point] |
| O=C1Nc2ccc3sc4ccccc4c3c2C1=O | inconclusive [inhibitor, partial curve, poor fit] |
| COc1cccc(C(=O)Oc2cc(C)[nH]c(=O)c2[N+](=O)[O-])c1 | inconclusive [inhibitor, full curve, poor fit] |
| Cc1ccc(CN2CC(C(=O)N(Cc3nnc(-c4ccccc4Cl)o3)C3CC3)CC2=O)cc1 (configuration not stated) | inconclusive [inhibitor, single point] |
| O=C(NCCCN1CCN(c2ccc(F)cc2)CC1)Nc1ccc([N+](=O)[O-])cc1 | inconclusive [inhibitor, full curve, poor fit] |
| C#CC1(NC(=O)NC(C)C)CCCCC1 | inactive |
| Cc1cc(NC(=O)CN(C)C)c([N+](=O)[O-])cc1C | inconclusive [inhibitor, single point] |
| CCCOC(=O)c1ccc(Cl)c(NC(=O)c2cccnc2)c1 | inconclusive [inhibitor, single point] |
| COC(=O)C1(CCSC)NC(c2ccco2)C2C(=O)N(C)C(=O)C21 (configuration not stated) | inactive |
| O=C(NCc1cccnc1)c1ccc(-c2cc(Cl)ccc2Cl)o1 | inconclusive [inhibitor, single point] |
| CCOC(=O)N1CCN(C(=O)c2ccc(Cl)c(S(=O)(=O)Nc3ccccc3)c2)CC1 | inconclusive [inhibitor, partial curve] |
| CCOC(=O)c1sc(=S)n(-c2ccc(OC)cc2)c1N | inconclusive [inhibitor, single point] |
| Cc1ccccc1COC(=O)CCCC1=NS(=O)(=O)c2ccccc2N1 | inconclusive [inhibitor, single point] |
| Cc1ccnc(NC(=O)c2cccc(NC(=O)Cc3ccccc3)c2)c1 | inactive |
| Cc1nc2ccccc2c(=O)n1NC(=O)c1ccccc1 | inconclusive [inhibitor, full curve, poor fit] |
| Cn1c(=O)n(C/C=C/c2ccccc2)c(=O)c2c1nc1n2CCCN1c1ccc(F)cc1 | active: 11.7 µM |
| N#Cc1ccc(C23CC4(C2)[C@H](CN(Cc2ccc(-c5ccccc5)cc2)[C@@H]4c2ccccc2)C3c2ccc(C(F)(F)F)cc2)cc1 (some centres not stated) | active: 14.7 µM |
